Test results: article PMC12136788
Some of the results follow.

T1: UNK ZnF1-3 (human, UniProt Q9C0B0 31-174)
T1 sequence: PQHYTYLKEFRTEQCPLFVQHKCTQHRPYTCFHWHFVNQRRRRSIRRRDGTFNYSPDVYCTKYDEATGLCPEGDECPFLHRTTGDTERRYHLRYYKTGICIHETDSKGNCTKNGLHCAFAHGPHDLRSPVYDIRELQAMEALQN

B1: chr17:34054454:34054455:+_ENSMUSG00000051390_ENSMUST00000053429|mus_mus|motif|central (ssRNA)
RNA: GGGAGUUCUACAGUCCGACGAUCAAAUGCAUCCUGGGAGGUAGAGGAGAAAUCAGUCGACUCCCGGGGGCUGAAGUAGUUGCGGCUGCUGGGAGACUGAUUCUCACUGGCCCUGCUGGAGGUAUGGGAACGGACAGAGCCUACCAACAGAGGAUUGAGCAUCA
B2: chr3:135071361:135071362:-_ENSMUSG00000028165_ENSMUST00000029815|mus_hu|FALSE|FALSE (ssRNA)
RNA: GGGAGUUCUACAGUCCGACGAUCUCUCUGUGAAAACACAAGUAAUUCUUGAUGGCAAUAUUUUUCUUAAUUCACCUAACCAAAUGCAGUUUGGAAGGCCAAAACGAGAAAAAAACACUUCAGAUUAUCAAAACCAAAAGAGAUCAACAGAGGAUUGAGCAUCA
B3: chr2:43450610:43450611:-_ENSG00000152518_ENST00000282388|hu_hu|FALSE|FALSE (ssRNA)
RNA: GGGAGUUCUACAGUCCGACGAUCAGUUAAAUAGUUUUCAUAUUGAGUUGUGGUGCAGUGGUGCGAAUCAACUCAAAACAGCUAAAAAUUCAGCAGUUAUUCUCCAACAAUUACAAAGUAAGCUCUGCGCAAGGCUUCCAGAGGCAACAGAGGAUUGAGCAUCA
B4: 50245285_50249986_740_CDS_ENSG00000121274_ENST00000436909|human|control|control (ssRNA)
RNA: GGGAGUUCUACAGUCCGACGAUCACUAGUAGGUAAAUAAAGUCCAGUUUUAAAACUUCCAAAUAUCUGGACGUCAGCGCUGGGCCAGAGCUCCUUAAUUACACUCUCGAUCCUGUUCACCACCUCCAUCCGCAUCUUCUCCUCCAACAGAGGAUUGAGCAUCA
B5: 133221040_133221160_1046_CDS_ENSMUSG00000043257_ENSMUST00000062118|mouse|control|control (ssRNA)
RNA: GGGAGUUCUACAGUCCGACGAUCUGACAAGCACACAGAGGCCAUCAGCUUCACGAGGGGCUUCCAGGGGCUCAGCACCGCCAGAGAGGAACAAAAGCCUCUGCACUGGGAGUGCAGGAGGAAGCCAAGGCUCACCAGCCCAUUCAACAGAGGAUUGAGCAUCA
B6: chr9:108846149:108846150:+_ENSMUSG00000025651_ENSMUST00000026743|mus_mus|FALSE|FALSE (ssRNA)
RNA: GGGAGUUCUACAGUCCGACGAUCGUGCUCUCGAGUGCUGUAGGCAUUAAGAUGAGCCCCAAUACUCUCUACCUCCUUCUCUAAGGCAUUGCCAGGCCGAUUCUUUGUUCCCUUGAAAGCCAGAUGUUCCAAAAAGUAGCCUGCCAACAGAGGAUUGAGCAUCA
B7: 87964793_87964913_1549_CDS_ENSG00000188994_ENST00000369577|human|control|control (ssRNA)
RNA: GGGAGUUCUACAGUCCGACGAUCUUUUAUCUCUCUCUUCUUCUGCUUUUCAUCACCAAUGUCUUUAAGAAGGCCAGAAUUAGCACCAACUCCACCAGAAAGCCCAUUCAUAGAAGUUUCUUUACUCUCUUCUUGGUAGUCUACCAACAGAGGAUUGAGCAUCA
B8: 129698849_129698969_2618_CDS_ENSMUSG00000001052_ENSMUST00000001079|mouse|control|control (ssRNA)
RNA: GGGAGUUCUACAGUCCGACGAUCAUUCGGAUCUUCUCUGGACUGCAGAAGUCCUGCCCCCAAGGAAGGUAACUGUGUCUGAAAUACAGACACGCGGCCGCCCGUGGGAGACAUGAGUUUGAAGGCAGCCUGAAGUGCAGGUCCCAACAGAGGAUUGAGCAUCA
B9: chr7:109309172:109309173:-_ENSMUSG00000063550_ENSMUST00000070165|mus_mus|FALSE|FALSE (ssRNA)
RNA: GGGAGUUCUACAGUCCGACGAUCUGAUUUGGCUGUGCCUGUUGUUUGCAAAGCCUUUGGCCUGACUCUGGUAGCAGGGCGAGGUGUAAGUUUAUAAUGAGUAGGUGUUGUAAGAGCUUUCUGAGCAGCUGGAUUGGUUGGUUUCAACAGAGGAUUGAGCAUCA
B10: chr7:138235809:138235810:+_ENSG00000122779_ENST00000415680|hu_hu|FALSE|FALSE (ssRNA)
RNA: GGGAGUUCUACAGUCCGACGAUCGGAUGCAUCACACCUUGCACGAAGGAGGUGCCGUAACCGGUAUGUAAUCAGUCGUUUGCUAUAAAGUAAUGCUGUACUGCUGCCACUGGAAACUGCCCAUUUAGAAAAAUGCAUGACAUGCAACAGAGGAUUGAGCAUCA
B11: chr5:138643614:138643615:+_ENSG00000015479_ENST00000510056|perfect_dup|FALSE|FALSE (ssRNA)
RNA: GGGAGUUCUACAGUCCGACGAUCGUCAUAAUCAAGCACUGGGUUGAGACUAGGACCACGAUCAUCAAAACUAUCUCUUCUAAAGUGCCUUUUUUCUUCCCAAUCAUCCCUAGGUACUCUGUAUGGUGGCUCCCGUGUAGCAGACAACAGAGGAUUGAGCAUCA
B12: chr6:55002191:55002192:+_ENSMUSG00000029777_ENSMUST00000003572|mus_mus|motif|central (ssRNA)
RNA: GGGAGUUCUACAGUCCGACGAUCGUGGUCUGCUCGGAAGCACUCUCCGUUCUUCACGUCCUUCACCAUGAAGUCAGCAAAUUUGUCGGCGUGGCCAGAGGUCUUUAAAACUGGCUCAGGGGUGAGCAUGGUGCAGUCAAUCUCCAACAGAGGAUUGAGCAUCA
B13: 155539967_155540087_1442_ncRNA_ENSMUSG00000041936_ENSMUST00000154494|mouse|control|control (ssRNA)
RNA: GGGAGUUCUACAGUCCGACGAUCGUCAGGGCAACUUAGAUGUAGCCUGGCUUCUACUUCCAGCCUCCGGGGACAGGCAAACACAUUUUGGGAAGUAAGAUGAUGUCCCAAUUAUUAUCAGUUUUUUGAUAUCACAGUAUUGUCCAACAGAGGAUUGAGCAUCA
B14: chr11:29608385:29608386:+_ENSMUSG00000020458_ENSMUST00000102843|mus_hu|motif|central (ssRNA)
RNA: GGGAGUUCUACAGUCCGACGAUCCCUGGCUAAUUUAGAAAAUGAAUCAGUUUUAGAACUGAUCAAUGUAGGGAACUCAUCGGUAAUUUCAAUUGGAGAUGAAUCUGAAAACGUUUCAGUUUCUCUUAUCUGUGCUUCCUUAGACAACAGAGGAUUGAGCAUCA
B15: 94672737_94676055_4995_CDS_ENSMUSG00000040785_ENSMUST00000117648|mouse|control|control (ssRNA)
RNA: GGGAGUUCUACAGUCCGACGAUCCUUCUCAUCUGUGAGUGCACUGCUGAAUCCAAGGGACUGGUCCGGAUGUGGUUCACAUUCCUUAUCGAAUCCAUCAUUUUUCUGGGCAGGCAUUUCACUGGUAUUGAUAACCUUUUUAAUCAACAGAGGAUUGAGCAUCA
B16: chr5:37680062:37680063:+_ENSMUSG00000029121_ENSMUST00000031004|mus_hu|mus_mus_mus_hu_False|1_28 (ssRNA)
RNA: GGGAGUUCUACAGUCCGACGAUCUUUGGGUGUAGCUGGUACCUCGUACACAGGACCGUCAUACAUGCCCCUGGAAACCCCUUGCAAUCCAAAAACCUUAUUCCUGAUCCUGACACGCUGGUACAGGUGCUCCGGGAAUGGCUUCAACAGAGGAUUGAGCAUCA
B17: chr6:114281168:114281169:-_ENSG00000196591_ENST00000368632|hu_hu|hu_hu_hu_mus_True|78_98 (ssRNA)
RNA: GGGAGUUCUACAGUCCGACGAUCUUCCAUUUUUCGGUAUAAGCCAUAAUUUAGCAGCAAGUUAUGGGUCAUCCGGAUUCUAUGAGGCUUCAUGGGAUGACCCUGGCCAUAAUAAUAAUUGCCAAUAUCACCAUCAUAGUAGUACAACAGAGGAUUGAGCAUCA
B18: chr11:87793471:87793472:-_ENSMUSG00000020483_ENSMUST00000020775|mus_mus|mus_mus_mus_hu_False|1_18 (ssRNA)
RNA: GGGAGUUCUACAGUCCGACGAUCUGGACUUGAAAAUAAAAGAAUAAGCUGGAUCCCCCACCCCCCCACAUUGUCAACCCUACACGAGAGUUUUGAAGGCGACUCAUGAAAAUCAGCCUCAAUUGGCGCAAUGACCACCCACCCCAACAGAGGAUUGAGCAUCA
B19: 119167067_119167187_3135_ncRNA_ENSMUSG00000041477_ENSMUST00000149651|mouse|control|control (ssRNA)
RNA: GGGAGUUCUACAGUCCGACGAUCGUCUGCCGAGUCUAUCUAAUCCCUUGACUGGCAGGUCUAAAACCAAGUUUUCAAAUGGCUUUCCCAAUUAUGCAAAUGACAUUCUGAACUGGGUCUGACUGACUCCUACGGCUGCCAUGUCAACAGAGGAUUGAGCAUCA
B20: chr11:77340908:77340909:-_ENSG00000074201_ENST00000525064|hu_hu|hu_hu_hu_mus_True|8_38 (ssRNA)
RNA: GGGAGUUCUACAGUCCGACGAUCGUUUGGAUCCCUGGACACCGCAUGUAAACUAAUGGUGGGGUAUUCCAGUGAGAAUCCUAAUCCCGAACCAUCUAACCAAGACAGGCGGCUCUCCGCGAUGUAAAGGGUACCAGUGCCGAGCAACAGAGGAUUGAGCAUCA
B21: chr10:127900053:127900054:+_ENSMUSG00000025369_ENSMUST00000099131|mus_mus|motif|central (ssRNA)
RNA: GGGAGUUCUACAGUCCGACGAUCACUCUUGAAUUUGUAGGCAGCUGCAAGAAUAUGGCAGAGGGAUCCUCCUGCUUUGAAAUCGGGGAAACAUUUGAUCGGCAGUUUAGUAAGCGGUGCGUUGCUGACAUGUUUGCCAAAAACCAACAGAGGAUUGAGCAUCA
B22: chr1:39494447:39494448:+_ENSG00000168653_ENST00000372967|hu_mus|hu_hu_hu_mus_False|1_108 (ssRNA)
RNA: GGGAGUUCUACAGUCCGACGAUCGCAUCGACCAGCCUUCUUAUAGGGCUGUUCUGCGCUUAGGAACAUAAAGUGCCGGUCCAGGCUGAUGCCCAGCUUUUUCUGUAUGUCAAGGAAAGGCAUGGCUCUGCAGUGCCCCCUUGACAACAGAGGAUUGAGCAUCA

Target: T1, UNK ZnF1-3
Assay: nsRBNS (natural sequence RNA bind-n-seq); RBNS binding buffer (assumed for nsRBNS): 25 mM Tris pH 7.5, 150 mM KCl, 3 mM MgCl2, 0.01% Triton X-100, 500 ug/ml BSA, 20 U/ml SUPERase-In, 4 C; UNK is unkempt and MSI1 is Musashi-1; names of the RNAs are library labels; protein concentration not given here; high values mean tight binding

| Binder | binding signal [enrichment R] |
| --- | --- |
| B1 | 1.27 |
| B2 | 0.855 |
| B3 | 1.2 |
| B4 | 1.04 |
| B5 | 1.93 |
| B6 | 0.952 |
| B7 | 1.1 |
| B8 | 0.327 |
| B9 | 0.683 |
| B10 | 1.52 |
| B11 | 1.52 |
| B12 | 0.813 |
| B13 | 1 |
| B14 | 1 |
| B15 | 0.631 |
| B16 | 0.649 |
| B17 | 0.615 |
| B18 | 2.18 |
| B19 | 0.862 |
| B20 | 1.1 |
| B21 | 0.885 |
| B22 | 0.877 |
